From the supplement of paper PMC5919970 come the findings set out here.

Structures can show the parent of a compound that is named as a salt. The full ranking holds about 2,000 compounds; the median of “fractional viability relative to vehicle” is about 0.92, and the lowest 2% start at about 0.11. The list shows a part of the results.

The assay deals with TYKNU. The experiment in a line: fractional viability relative to vehicle; TYKNU is a high-grade serous ovarian cancer line; higher = less growth inhibition. As to conditions: 72 h, genotype: OPA1 knockout (sgOPA1 #2). In short, it runs like this:
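Drug treatment lasted 72 h, with cells grown at 37 °C in 5% CO2 in RPMI 1640 supplemented with 10% FBS. Beforehand, TYKNU control cells or their lentiCRISPRv2 knockout derivatives had been seeded at 500 cells per well into drug-stamped 384-well plates carrying a ~2100-compound library at 2 or 10 μM, in duplicate. Viability came from Cell Titer Glo luminescence, with averaged duplicate treatment wells normalised to duplicate control wells in the same plate position.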

`CNc1nc(Nc2cn(C(C)(C)C#N)nc2C)ncc1C(F)(F)F` showed a fractional viability (2uM) of 0.801 and a fractional viability (10uM) of 0.885.

The compound `C=CC(=O)N1C/C(=C\c2ccc([N+](=O)[O-])cc2)C(=O)/C(=C/c2ccc([N+](=O)[O-])cc2)C1` showed a fractional viability (2uM) of 0.0989 and a fractional viability (10uM) of 0.111.

For the compound `Cc1cc(CN2CCN(c3c(Br)cnc4nc(-c5ccc(N6CCN(C)CC6)cc5)[nH]c34)CC2)no1`, the fractional viability runs as follows: (2uM) 0.875; (10uM) 0.127.

The compound `COc1ccc(C2CC(=O)c3c(O)cc(OC4OC(COC5OC(C)C(O)C(O)C5O)C(O)C(O)C4O)cc3O2)cc1OC` (stereo not drawn) [Methyl-Hesperidin] registered a fractional viability (2uM) of 0.971 and a fractional viability (10uM) of 1.13.

As to `CN(C)C(=O)[C@H](O)[C@H](Cc1ccccc1)NC(=O)c1cc2cc(Cl)ccc2[nH]1`, the fractional viability by setting is: (2uM) 1.01; (10uM) 1.01.

Take `O=C(Oc1cc(S(=O)(=O)c2ccccc2)ccc1[N+](=O)[O-])c1ccc(Cl)cc1`: the fractional viability amounted to 0.86 (2uM) and 0.716 (10uM).

As to `N[C@@H](Cc1cc(I)c(Oc2ccc(O)c(I)c2)c(I)c1)C(=O)O` [Liothyronine Sodium], the fractional viability reads like this: (2uM) 0.886; (10uM) 0.836.

In turn, `CCN1CCN(Cc2ccc(C(=O)Nc3ccc(C)c(Oc4ccc5c(c4)CC(=O)N5)c3)cc2C(F)(F)F)CC1` had a fractional viability (2uM) of 0.782 and a fractional viability (10uM) of 0.462.

With `Cc1ccc(=O)n(-c2ccccc2)c1` [Pirfenidone], the fractional viability (2uM) came to 0.943 and the fractional viability (10uM) worked out at 0.854.

`Cc1c(-c2cnccn2)ssc1=S` [Oltipraz] returned a fractional viability (2uM) of 0.969 and a fractional viability (10uM) of 0.849.

Turning to `COc1ccc(-n2c(SCCCN3C(=O)c4cccc5cccc(c45)C3=O)nnc2-c2ccncc2)cc1`, the fractional viability by setting is: (2uM) 0.913; (10uM) 0.874.

As to `Cc1cccc(CC(=O)N2CCc3c2ccc(-c2cn(C)c4ncnc(N)c24)c3F)n1`, the fractional viability reads like this: (2uM) 0.931; (10uM) 1.08.

`CC(C)(CO)C(O)C(=O)NCCC(=O)O` [Calcium D-Panthotenate] gave a fractional viability (2uM) of 0.75 and a fractional viability (10uM) of 0.792.

Regarding `CC[C@H](CO)Nc1nc(NCc2ccccc2)c2ncn(C(C)C)c2n1` [Roscovitine (Seliciclib,CYC202)], the fractional viability was 1.14 (2uM) and 0.913 (10uM).

In the case of `Cc1ccc(NC(=O)c2cccc(C(C)(C)C#N)c2)cc1Nc1ccc2ncn(C)c(=O)c2c1`, the fractional viability by setting is: (2uM) 0.463; (10uM) 0.392.

Turning to `OCCN(CCO)c1nc(N2CCCCC2)c2nc(N(CCO)CCO)nc(N3CCCCC3)c2n1` [Dipyridamole], the fractional viability is, setting by setting: (2uM) 1.1; (10uM) 0.942.

Turning to `CC[C@@H](C)Nc1cc(C(=O)N[C@H]2C[C@H]3CC[C@@H](C2)N3c2ccc(C(=O)C3CC3)cn2)c(C)cc1C(N)=O`, the fractional viability runs as follows: (2uM) 0.549; (10uM) 0.565.

Regarding `Cc1ccc(F)c(NC(=O)Nc2ccc(-c3cccc4[nH]nc(N)c34)cc2)c1` [Linifanib (ABT-869)], the fractional viability (2uM) was determined as 1.31 and the fractional viability (10uM) came to 0.92.

On to `C[C@]12CC[C@@H]3c4ccc(OC(=O)c5ccccc5)cc4CC[C@H]3[C@@H]1CC[C@@H]2O` [Estradiol Benzoate], for which the fractional viability was determined as 0.897 (2uM) and 0.768 (10uM).

Turning to `CC(C)(C)[N+]([O-])=Cc1ccc(S(=O)(=O)O)cc1S(=O)(=O)O`, the fractional viability runs as follows: (2uM) 0.876; (10uM) 0.746.

In the case of `O=C(/C=C\n1cnc(-c2cc(C(F)(F)F)cc(C(F)(F)F)c2)n1)N1CC(F)(F)C1`, the fractional viability was 0.205 (2uM) and 0.149 (10uM).

For the compound `CN1CCN(C(c2ccccc2)c2ccccc2)CC1` [Cyclizine 2HCl], the fractional viability reads like this: (2uM) 1.01; (10uM) 0.77.

With `CC(C)OC(=O)C1=CN(C(=O)c2ccc(F)c(F)c2)CC(C)(C)c2c1[nH]c1ccccc21`, the fractional viability is 0.841 (2uM) and 0.904 (10uM).

Turning to `COc1cc2ncnc(Nc3cccc(Cl)c3)c2cc1OC` [AG-1478 (Tyrphostin AG-1478)], the fractional viability by setting is: (2uM) 1.42; (10uM) 0.294.

Take `O=c1oc2cc(O)ccc2s1` [Tioxolone]: the fractional viability by setting is: (2uM) 1.01; (10uM) 0.873.

As to `C[C@@H]1C[C@H]2[C@@H]3CCC4=CC(=O)C=C[C@]4(C)[C@@]3(Cl)[C@@H](O)C[C@]2(C)[C@@]1(OC(=O)c1ccco1)C(=O)CCl` [Mometasone furoate], the fractional viability runs as follows: (2uM) 1.04; (10uM) 0.409.

As to `CCOC(=O)[C@H](CCc1ccccc1)N[C@@H](C)C(=O)N1C(=O)N(C)C[C@H]1C(=O)O` [Imidapril HCl], the fractional viability is 0.918 (2uM) and 1.26 (10uM).

On to `CS(=O)(=O)c1ccc(-c2nnc(/C=C/c3nnc(-c4ccc(C#N)cc4)o3)n2-c2ccccc2Cl)nc1`, for which the fractional viability runs as follows: (2uM) 1.11; (10uM) 1.03.

Regarding `c1coc(CNc2ncnc3[nH]cnc23)c1` [Kinetin], the fractional viability stood at 0.862 (2uM) and 0.56 (10uM).

On to `C[C@]12CCC3=C4CCC(=O)C=C4CC[C@H]3[C@@H]1CC[C@@]2(O)CC#N` [Dienogest], for which the fractional viability was 1.11 (2uM) and 0.961 (10uM).

`NC(=O)c1ccc(I)c([N+](=O)[O-])c1` [Iniparib (BSI-201)] gave a fractional viability (2uM) of 1.14 and a fractional viability (10uM) of 0.945.

As to `O=C(O)c1cc(/N=N/c2ccc(S(=O)(=O)Nc3ccccn3)cc2)ccc1O` [Sulfasalazine], the fractional viability is, setting by setting: (2uM) 1.1; (10uM) 0.957.

In the case of `C/C(=C\C(=O)OCCCCCCCCC(=O)O)C[C@@H]1OC[C@H](C[C@@H]2O[C@H]2[C@@H](C)[C@H](C)O)[C@@H](O)[C@H]1O` [Mupirocin], the fractional viability amounted to 1.36 (2uM) and 0.971 (10uM).

With `COc1ccc(C2=N[C@@H](c3ccc(Cl)cc3)[C@@H](c3ccc(Cl)cc3)N2C(=O)N2CCNC(=O)C2)c(OC(C)C)c1` [Nutlin-3], the fractional viability worked out at 0.858 (2uM) and 0.623 (10uM).

`COc1ccc(C2=N[C@@H](c3ccc(Cl)cc3)[C@@H](c3ccc(Cl)cc3)N2C(=O)N2CCNC(=O)C2)c(OC(C)C)c1` [Nutlin-3a] registered a fractional viability (2uM) of 0.481 and a fractional viability (10uM) of 0.367.

As for `CN/C(=N\CCSCc1nc[nH]c1C)NC#N` [Cimetidine], the fractional viability by setting is: (2uM) 1.19; (10uM) 0.817.

As for `C[C@@H](O[C@H]1OCCN(Cc2n[nH]c(=O)[nH]2)[C@H]1c1ccc(F)cc1)c1cc(C(F)(F)F)cc(C(F)(F)F)c1` [Aprepitant], the fractional viability was determined as 1.15 (2uM) and 0.832 (10uM).

Turning to `Cc1cn(-c2cc(NC(=O)c3ccc(C)c(Nc4nccc(-c5cccnc5)n4)c3)cc(C(F)(F)F)c2)cn1` [Nilotinib (AMN-107)], the fractional viability by setting is: (2uM) 1.67; (10uM) 1.65.

Take `NC(=O)c1ccc(-c2nc(-c3ccccn3)c(-c3ccc4c(c3)OCO4)[nH]2)cc1`: the fractional viability amounted to 1.28 (2uM) and 1.44 (10uM).

In the case of `CCCNC(=O)Nc1ccc(Oc2ncnc3cc(OC)c(OC)cc23)cc1Cl`, the fractional viability is 1.27 (2uM) and 1.2 (10uM).

As to `CC(=O)c1c(C)c2cnc(Nc3ccc(N4CCNCC4)cn3)nc2n(C2CCCC2)c1=O`, the fractional viability is, setting by setting: (2uM) 1.28; (10uM) 0.956.

For `CCN1C[C@H](C)n2c(c(O)c3c(=O)n(Cc4ccc(F)c(Cl)c4)nc(C(=O)NC)c32)C1=O`, the fractional viability stood at 0.944 (2uM) and 1.06 (10uM).

As to `CC(C)(C)c1ccc(S(=O)(=O)/C=C/C#N)cc1`, the fractional viability is, setting by setting: (2uM) 0.357; (10uM) 0.0658.

`CNC(=O)c1cc(Oc2ccc3nc(N[C@@H]4CCCC[C@H]4O)sc3c2)ccn1`: the fractional viability came to 0.831 (2uM) and 0.74 (10uM).
